Experimental findings from patent publication US20250297021A1 (SHANDONG SIMCERE BIOPHARMACEUTICAL CO NO 1, published 2025) are described below.

Assay [1] concerns the target T1, human BCMA-His protein (human, UniProt Q02223 1-54).
T1 construct: bought; also called human BCMA protein; not shown: His tag
T1 sequence (looked up): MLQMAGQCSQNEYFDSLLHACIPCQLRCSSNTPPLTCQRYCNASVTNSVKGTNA
Kind of assay: ELISA, human BCMA-His coated; Ab 0.0001 nM. Here is the method:
(§1) The specific method was as follows: Human BCMA protein (purchased from Acro, catalog number: BCA-H522y) and monkey BCMA protein (purchased from Acro, catalog number: BCA-C52H7) were diluted with PBS to a final concentration of 1 μg/mL, respectively, and then added to a 96-well ELISA plate at 50 μl/well. The plate was sealed with a plastic film and incubated overnight at 4° C., the plate was washed twice with PBS the next day, and then a blocking solution [PBS+2% (w/v) BSA] was added for blocking at room temperature for 2 h. The blocking solution was discarded, the plate was washed 3 times with PBS, and 100 nM BCMA human-mouse chimeric antibody diluted gradiently or control antibody was added at 50 μl/well. After incubation at 37° C. for 2 h, the plate was washed 3 times with PBS. HRP (horseradish peroxidase)-labeled secondary antibody (purchased from Merck, catalog number: AP113P) was added, and incubated at 37° C. for 1 h, and the plate was washed 5 times with PBS. TMB substrate was added at 50 μl/well, and incubated at room temperature for 10 min, then a stop solution (1.0 M HCl) was added at 50 μl/well. The OD450 nm values were read by an ELISA microplate reader (Multimode Plate Reader, EnSight, purchased from Perkin Elmer). The results are shown in Table 7, Table 8 and FIGS. 7A-7B and FIG. 8A-8B. All chimeric antibodies have good binding activity with human BCMA protein; except that BCMA-mAb06 has no cross-binding activity with monkey BCMA protein and BCMA-mAb07 has weak binding to monkey BCMA protein, other chimeric antibodies have good binding activity with monkey BCMA protein. The IgG subtype control is human IgG1.
For orientation: In an ELISA, binding on a coated surface is turned into a signal by an enzyme label.

The target in assay [2] is T2, human BCMA on cells (human, UniProt Q02223 1-184).
T2 construct: whole, on cells; also called H929 cells; U266 cells
T2 sequence (looked up): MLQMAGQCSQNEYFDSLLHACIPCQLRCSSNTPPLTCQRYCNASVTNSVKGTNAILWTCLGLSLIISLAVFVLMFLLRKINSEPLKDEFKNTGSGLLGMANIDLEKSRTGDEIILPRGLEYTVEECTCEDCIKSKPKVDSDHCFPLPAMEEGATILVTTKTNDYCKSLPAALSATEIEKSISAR
The assay is described as follows: cell ELISA, Flp-inCHO-human BCMA cells; Ab 0.14 nM. From the text: (§2) The specific method was as follows: The required cells were scale-up cultured in a T-75 cell culture flask to the logarithmic growth phase, the medium was aspirated, the cells were washed twice with a PBS buffer, and then digested with trypsin. Then the digestion was terminated with a complete medium, and the cells were pipetted to obtain a single cell suspension. After the cells were counted and centrifuged, the cell precipitate was resuspended to 4×10⁵ cells per milliliter with a complete medium, and the suspension was added to a 96-well flat-bottomed cell culture plate at 100 μl/well, and cultured overnight in a 37° C., 5% carbon dioxide incubator. On the next day, the medium in the 96-well plate was discarded, the cells were washed once with PBS, and then fixed at room temperature for 0.5 h with an immunostaining fixative (purchased from Beyotime, catalog number: P0098-500 ml) at 50 μl/well. A blocking solution [PBS+5% (w/v) skim milk] was added for blocking at room temperature for 2 h. The blocking solution was discarded, the plate was washed 3 times with PBS, and 100 nM BCMA human-mouse chimeric antibody diluted gradiently or control antibody was added at 50 μl/well. After incubation at 37° C. for 2 h, the plate was washed 3 times with PBS. HRP (horseradish peroxidase)-labeled secondary antibody (purchased from Merck, catalog number: AP113P) was added, and incubated at 37° C. for 1 h, and the plate was washed 5 times with PBS. TMB substrate was added at 50 μl/well, and incubated at room temperature for 10 min, then a stop solution (1.0 M HCl) was added at 50 μl/well. The OD450 nm values were read by an ELISA microplate reader (Multimode Plate Reader, EnSight, purchased from Perkin Elmer). The chimeric antibodies bind well to Flp-inCHO-human BCMA cells. The IgG subtype control is human IgG1.

The target in assay [3] is T1, human BCMA-His protein. Kind of assay: ELISA, human BCMA-His coated; Ab 0.001 nM. As to the method:
as §1

The target of assay [4] is T3, monkey BCMA-His protein (monkey, UniProt A0A2K5UD97 1-53).
T3 construct: bought; monkey species not further stated for this product; also called monkey BCMA protein
Kind of assay: ELISA, monkey BCMA-His coated; Ab 100 nM. As to the method:
as §1

The target of assay [5] is T2, human BCMA on cells. The assay is described as follows: cell ELISA, Flp-inCHO-human BCMA cells; Ab 0.41 nM.
Text: as §2

Assay [6] addresses T1, human BCMA-His protein. The assay is described as follows: ELISA, human BCMA-His coated; Ab 1 nM. Here is the method:
as §1

For assay [7], the target named is T3, monkey BCMA-His protein. Kind of assay: ELISA, monkey BCMA-His coated; Ab 0.001 nM. Here is the method:
as §1

For assay [8], the target named is T3, monkey BCMA-His protein. Kind of assay: ELISA, monkey BCMA-His coated; Ab 0.0001 nM. Here is the method: as §1
Assay [9] addresses T1, human BCMA-His protein. Kind of assay: ELISA, human BCMA-His coated; Ab 10 nM. Here is the method: as §1
For assay [10], the target named is T1, human BCMA-His protein. Kind of assay: ELISA, human BCMA-His coated; Ab 0.1 nM. Here is the method: as §1
Assay [11] addresses T2, human BCMA on cells. Kind of assay: cell ELISA, Flp-inCHO-human BCMA cells; Ab 100.00 nM.
Text: as §2

In assay [12] the target is T2, human BCMA on cells. The assay is described as follows: cell ELISA, Flp-inCHO-human BCMA cells; Ab 0.02 nM.
Text: as §2

Assay [13] deals with T2, human BCMA on cells. Kind of assay: cell ELISA, Flp-inCHO-human BCMA cells; Ab 0.01 nM.
Text: as §2

T3 sequence (A0A2K5UD97 entry or part of it limits assumed): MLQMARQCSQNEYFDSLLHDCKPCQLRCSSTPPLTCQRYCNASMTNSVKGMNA

B1: BCMA-mAb05 (Fc fusion)
scFv: QGQMQQSDAELVKPGASVQISCKASGYMFTDHTFHWMRQRPEQGLEWIGYIYPRDDNTKYNEKFKGKATLTADKSSSTAYIHLNSLTSEDSAVYFCARAGYYGSSHAMDYWGQGTSVTVSSGGGGSGGGGSGGGGSDIVMTQSHKFMSTSVGDRVSITCKASQDVSTAVAWYQQKPGQSPRLLIYSASSRYTGVPDRFTGSGSGTDFTFTISSVQTEDLAVYYCQQLYSTPWTFGGGTKLEIK[human IgG1 Fc with C220S (EU numbers) not spelt out]
On to B1, for which the OD450 in the assay with human BCMA-His protein [1] was found to be 0.08; in the assay with human BCMA on cells [2], 0.43; in the assay with human BCMA-His protein [3] it was 0.12; with monkey BCMA-His protein [4], 2.99; with human BCMA on cells [5], 0.65; with human BCMA-His protein [6] it was 2.25. Besides, the OD450 with monkey BCMA-His protein [7] turned out to be 0.06; with monkey BCMA-His protein [8], 0.05; with human BCMA-His protein [9], 2.73; with human BCMA-His protein [10] it was 1.2; with human BCMA on cells [11], 1.31; in the assay with human BCMA on cells [12] it was 0.15. In addition, the OD450 with human BCMA on cells [13] came out at 0.1.

B2: BCMA-mAb06 (Fc fusion)
scFv: EVKLLQSGGGLVQPGGSLKLSCAASGIDFSRYWMSWVRRAPGKGLEWIGEINPDSSTINYAPSLKDEFIISRDNAKNTLYLQMSKVRSEDTALYYCAIFYYANYYAMDYWGQGTSVTVSSGGGGSGGGGSGGGGSDIVMTQSQKFMSTSVGDRVSVTCKASQNVDTNVAWYQQKPGQSPKALIYSASYRFSGVPDRFTGSGSGTDFTLTISNVQSEDLAEYFCQQYNGYPFTFASGTKLEIK[human IgG1 Fc with C220S (EU numbers) not spelt out]
B2: the OD450 was found to be 0.09 in the assay with human BCMA-His protein [1]; 0.44 in the assay with human BCMA on cells [2]; 0.12 with human BCMA-His protein [3]; 0.81 in the assay with monkey BCMA-His protein [4]; 0.74 with human BCMA on cells [5]; 2.26 with human BCMA-His protein [6]. Besides, the OD450 with monkey BCMA-His protein [7] stood at 0.05; with monkey BCMA-His protein [8] it was 0.05; with human BCMA-His protein [9], 2.52; with human BCMA-His protein [10] it was 1.29; in the assay with human BCMA on cells [11], 1.21; in the assay with human BCMA on cells [12] it was 0.15. This molecule displayed an OD450 with human BCMA on cells [13] of 0.1.
